# Laboratory results: paper PMC6919601, “Identification of Plasmodium dipeptidyl aminopeptidase allosteric inhibitors by high throughput screening” (PLoS ONE, 2019)
# Values joined by “and” are separate entries in the source; they are usually repeats but may differ in a detail not shown here. Identical values can stand only once. The campaign covered roughly 110,000 compounds. About 230 (0.21%) showed an effect of 50% or more. The list shows a part of the results.
# Molecular target: DPAP1 (Plasmodium falciparum, UniProt Q8IIJ9)
# Sequence (Q8IIJ9 whole entry, looked up): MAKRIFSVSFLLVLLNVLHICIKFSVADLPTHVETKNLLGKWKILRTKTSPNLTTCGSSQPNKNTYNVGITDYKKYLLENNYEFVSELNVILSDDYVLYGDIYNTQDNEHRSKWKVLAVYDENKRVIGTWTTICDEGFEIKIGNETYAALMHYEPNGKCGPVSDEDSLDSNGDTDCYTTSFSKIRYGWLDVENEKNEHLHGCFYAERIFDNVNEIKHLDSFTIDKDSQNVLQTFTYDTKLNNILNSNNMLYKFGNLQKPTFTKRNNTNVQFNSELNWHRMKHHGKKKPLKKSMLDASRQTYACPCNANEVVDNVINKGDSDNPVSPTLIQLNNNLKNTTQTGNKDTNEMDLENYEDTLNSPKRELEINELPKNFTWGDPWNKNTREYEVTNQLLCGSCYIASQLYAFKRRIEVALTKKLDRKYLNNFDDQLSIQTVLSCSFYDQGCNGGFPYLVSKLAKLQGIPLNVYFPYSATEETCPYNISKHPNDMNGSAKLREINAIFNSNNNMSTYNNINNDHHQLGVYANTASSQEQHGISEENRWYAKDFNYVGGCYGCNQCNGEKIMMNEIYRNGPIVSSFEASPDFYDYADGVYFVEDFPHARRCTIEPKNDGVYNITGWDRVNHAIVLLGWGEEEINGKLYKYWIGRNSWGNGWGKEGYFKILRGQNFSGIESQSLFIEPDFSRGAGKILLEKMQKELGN
# Test: primary screen, percent inhibition; read by cleavage of a fluorogenic dipeptide substrate; higher = more effect of the substance
# Parameters: species or system P. falciparum D10 trophozoite lysates; single well
# 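Also: 30 min substrate incubation versus DMSO and 10 µM JCP410 controls.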
row,Compound,% Inhibition @ 10 uM
1,OC1(c2ccc(Br)cc2)CCN(Cc2ccc(F)cc2F)CC1,1.88%
2,COc1ccccc1NC(=O)NC1CCCCC1,1.35%
3,CCC(NC(=O)C(NC(=O)c1ccc(-c2ccccc2Cl)c(Cl)c1)C1CCCCC1)C(=O)c1nc2ncccc2o1 (stereo not shown),-0.207%
4,CCOc1ccc2[nH]c(SCC(=O)Nc3c(-c4ccccc4)nc4ccccn34)nc2c1,2.7%
5,Cc1[nH]c(-c2ccc(F)cc2)cc1C(=O)N1CCN(Cc2ccccc2)CC1,-0.361%
6,CC(C)c1ccccc1NC(=O)C1CCCN1S(=O)(=O)c1ccc(Cl)cc1 (stereo not shown),1.67%
7,CCN(CC)S(=O)(=O)c1cccc(C(=O)NCc2ccccc2)c1,-0.0217%
8,O=C(NCc1ccccc1)c1cc(C2CC2)on1,-7.15%
9,Cc1ccc(Cn2c(SCC(=O)c3ccccc3)nc3c2c(=O)[nH]c(=O)n3C)cc1,-3.26%
10,Cc1ccc(C(=O)N/C(=C\c2cccs2)C(=O)NC2CCCC2)cc1C,2.7%
11,CCCN1CCN(C(=O)C2CCCN(c3ncnc4c3nc3n4CCCCC3)C2)CC1 (stereo not shown),-1.46%
12,CC(C)NC(=O)c1ccccc1NC(=O)CSCc1c(Cl)cccc1Cl,-3.77%
13,COc1ccc(CC(=N)NOC(=O)COc2ccc(C)c(C)c2)cc1,-1.47%
14,CCOC(=O)C1=C(C)N=c2s/c(=C\c3ccccc3Cl)c(=O)n2C1c1ccc2c(c1)OCO2 (stereo not shown),-3.38%
15,CN1CCC(NCCc2ccccc2Cl)CC1,1.57%
16,COc1ccccc1C(=O)Nc1ccc([N+](=O)[O-])cc1Cl,-1.48%
17,O=C(NC1CCCCC1)c1cc2ccc3cccnc3c2[nH]1,1.41%
18,Cc1nn(C)c(C)c1CN(C)C(=O)c1cnn2c1NC(c1ccccc1)CC2C(F)(F)F (stereo not shown),-0.865%
19,COc1ccc(-n2nc3ccc(NC(=O)c4ccc(OC)c(OC)c4)cc3n2)cc1,5.07%
20,Cc1ccc(-c2ccc(=O)n(Cc3ccc(F)cc3Cl)n2)cc1,0.548%
21,OC12CCCCC1C(c1cccc(C(F)(F)F)c1)NCC2 (stereo not shown),-0.13%
22,O=C(NCCN1CCCCC1)c1cc2ccccc2[nH]1,0.0539%
23,CCn1cc(C(=O)Nn2cnnc2)c(=O)c2ccc(C)nc21,4.79%
24,CC1(C)OC(=O)C(=C/C=C/c2ccc(Br)o2)C(=O)O1,-4.01%
25,CCCc1cc(O)n2nc(NC(=O)c3ccco3)nc2n1,-1.31%

row,Compound,% Inhibition @ 10 uM
1,Cc1cc(-n2cnnn2)cc(C)c1S(=O)(=O)N1CCOCC1,-6.25%
2,CC1CCCN(CCCNC(=O)C2CCN(c3ncnc4c3nc3n4CCCCC3)CC2)C1 (stereo not shown),5.05%
3,COc1cccc2cc(-c3nc(-c4ccc(Cl)cc4)no3)c(=O)oc12,-0.579%
4,O=C(Nc1sc2c(c1C(=O)Nc1ccccc1)CCCCC2)c1cccnc1,8.43%
5,CCOc1ccccc1C=C1C(=O)NC(=S)NC1=O,0.467%
6,Oc1ccc2ccccc2c1CN1CCC(Cc2ccccc2)CC1,-1.74%
7,O=C1N/C(=C\c2ccccc2F)C(=O)N1Cc1ccc(Cl)cc1,-1.48%
8,CCOC(=O)c1c(C)[nH]c(C)c1S(=O)(=O)NCc1cccnc1,5.07%
9,O=C(Nc1nccs1)c1sc2ccccc2c1Cl,-1.6%
10,CC1CCC(Nc2c(-c3ccc(F)cc3)[nH]c3c(C#N)cnn23)CC1 (stereo not shown),-1.11%
11,CCCc1nn(C)c2c1C(c1c(Cl)cccc1Cl)C(C#N)=C(N)O2 (stereo not shown),0.121%
12,CCN(CC)S(=O)(=O)c1ccc(NC(=O)COc2ccccc2)cc1,5.42%
13,COC(=O)C1=C(C)N(Cc2cccnc2)C(=O)/C1=C\c1cccc(Br)c1,-3.4%
14,CC1Cc2cc(C(=O)C3=C(O)C(=O)N(CCN4CCOCC4)C3c3cccc4ccccc34)ccc2O1 (stereo not shown),-4.62%
15,O=C(NCCCn1ccnc1)C(=O)NCC(c1cccnc1)N1CCOCC1 (stereo not shown),-5.37%
16,COc1ccc(C2C(C(=O)c3ccc(C)cc3)=C(O)C(=O)N2CCCN(C)C)cc1 (stereo not shown),-3.06%
17,COc1ccc(/C=C/C(=O)C2(C)CCCCC2)cc1,5.35% and 0.0719%
18,Cc1ccc(-n2ncc(C(=O)NCc3ccc4c(c3)OCO4)c2-n2cccc2)cc1,10.2%
19,CCOC(=O)N1CCN(C(=O)c2cc(-c3ccc(C)c(C)c3)[nH]n2)CC1,-1.86%
20,O=C(c1ccc(Br)cc1)N(Cc1cccs1)C1CCS(=O)(=O)C1 (stereo not shown),-3.37%
21,O=c1oc2c(-c3cccc(Cl)c3)cc(O)cc2s1,4.57%
22,CCOCCCNC(=O)CCC(=O)N1Cc2cccc(OC)c2Oc2ncccc21,4.03%
23,Cc1ccccc1OCC(=O)Nc1ccc(N)cc1,6.48%
24,CCOc1ccc2sc(/C(C)=N/Cc3ccc(F)cc3)c(O)c2c1,-3.46%
25,N=C(NOC(=O)c1ccc2c(c1)OCO2)c1ccc(Cl)cc1,-5.85%

row,Compound,% Inhibition @ 10 uM
1,Cc1ccc(C2C=C(c3ccc(OC(F)F)cc3)Nc3nnnn32)cc1 (stereo not shown),-3.37%
2,Cc1ccc(/C=C(\C#N)c2nc(C3CC3)cs2)o1,-4.08%
3,CCN1C(=O)C(CC(=O)Nc2ccccc2)S/C1=N\c1cccc(C(F)(F)F)c1 (stereo not shown),4.08%
4,Cc1cccn2c(=O)c3cc(C#N)c(=O)n(CC4CCCO4)c3nc12 (stereo not shown),2.73%
5,Cc1cc(NC(=O)c2cc3nc(C(F)F)cc(C(F)F)n3n2)no1,1.57%
6,Cc1ccc2nc(Cl)c3cc(C(=O)N4CCC5(CC4)OCCO5)sc3c2c1,-0.0115%
7,CSc1ccc(CC(=S)N2CCOCC2)cc1,3.95%
8,O=C(c1cc2nc(-c3ccco3)cc(C(F)(F)Cl)n2n1)N1CCOCC1,-1.95%
9,CC1(C)CC2=Nc3ccccc3NC(/C=C/c3ccccc3[N+](=O)[O-])C2=C(O)C1 (stereo not shown),0.427%
10,Nc1c(C(=O)c2ccc3c(c2)OCCO3)sc2nc3c(cc12)CCCC3,5.18%
11,O=C(c1ccc(S(=O)(=O)N2CCCCC2)cc1)N1CCN(c2ccccc2F)CC1,5.15%
12,N#Cc1cccc(NC(=O)c2ccccc2Br)c1,-0.884%
13,CC(=O)C1=C(C)NC(=O)NC1c1cccc([N+](=O)[O-])c1 (stereo not shown),1.04%
14,CC(=O)N(C)CCc1ccc(C)[n+]([O-])c1,-5.51%
15,O=C1c2ccccc2C(=O)N1CNc1ccc(Cc2ccncc2)cc1,-8.83%
16,COCCNC(=O)Cn1cc(C(=O)c2cccs2)c2ccccc21,-1.82%
17,CC1=CCC2C3OC(c4ccccc43)C2C1 (stereo not shown),0.722%
18,Cc1cc(C)n2nc3nc(N4CCC(C)CC4)nc(-c4ccc(C(C)C)cc4)c3c2n1,-0.228%
19,O=C(NCc1ccco1)c1cc2nc(-c3ccc4c(c3)OCO4)cc(C(F)(F)F)n2n1,5.4%
20,COc1cc(-n2c(C)nc3cc(C(=O)NC4CCCC(C)C4C)ccc32)cc(OC)c1OC (stereo not shown),-3.78%
21,Cc1ccc2oc(C(=O)Nc3c(C(=O)c4ccccc4)oc4ccccc34)cc(=O)c2c1,-1.47%
22,O=C(NCCN1CCOCC1)c1sc2ccccc2c1Cl,3.05%
23,COc1ccc(CNC(=O)c2ccc(NC(=O)C(C)C)cc2)cc1,-3.26%
24,CC1CCCCN1Cc1c(O)ccc2cc(-c3nc4ccccc4s3)c(=O)oc12 (stereo not shown),3.04%
25,Cc1cccc(NC2c3ccccc3C(=O)N2Cc2ccccc2)n1 (stereo not shown),-1.08%

row,Compound,% Inhibition @ 10 uM
1,CC(C)CC(=O)Nc1nc2ccc(S(C)(=O)=O)cc2s1,-0.366%
2,CCN(CC)C(=O)C1CCCN(Cc2ccccc2OC)C1 (stereo not shown),3.25%
3,Cc1sc(N)nc1-c1ccc(C(C)C)cc1,2.03%
4,COc1cccc(-n2nnc3c(=O)n(Cc4cccc(F)c4)cnc32)c1,-3.94%
5,O=C(O)c1cccc2c(Cl)ccc(C(=O)O)c12,2.86%
6,O=S(=O)(Nc1ccc(F)cc1)c1cc(Cl)ccc1Cl,-0.351%
7,O=S(=O)(c1ccc(Br)s1)N1CCN(c2cccc(Cl)c2)CC1,-10.1%
8,CCC(C(=O)NCCc1ccc(SC)cc1)n1nc(C)c2c(C)n(-c3ccccc3)nc2c1=O (stereo not shown),-3.05%
9,CCN(CC)CCCC(C)NC(=O)c1c(O)nc2c(c1O)CCCC2 (stereo not shown),4.35%
10,CCOC(=O)C1=C(C)OC(N)=C(C#N)C1c1ccc(Br)s1 (stereo not shown),1.48%
11,Cc1ccc(NC(=O)c2cnn(-c3ccccc3)c2C)cc1C,0.189%
12,CN1C(=O)C2Cc3c([nH]c4ccccc34)C(c3cccc(F)c3)N2C1=S (stereo not shown),-0.0372%
13,CC1(C)N=C(N)N=C(N)N1c1ccccc1Br,-2.35%
14,C=Cc1ccc(Cn2c(C)c(CNCc3ccccc3OCC)c(C(=O)O)c2C)cc1,-7.36%
15,O=C(O)Cc1ccc2c(c1)OCCO2,-5.41%
16,c1ccc(-c2csc3ncnc(NCCc4cccs4)c23)cc1,-2.82%
17,O=c1c2c3c(sc2nnn1Cc1ccccc1Cl)CCCC3,2.24%
18,Cn1c(Cc2csc(N)n2)nnc1SCC(=O)NC1CCCCC1,-6.27%
19,O=c1c2c3n(c4cc(Cl)c([N+](=O)[O-])cc4c-2nn1-c1ccccc1)CCCCC3,-1.86%
20,Cc1oc(-c2ccccc2F)nc1CSc1nc2cccnc2[nH]1,-0.878%
21,Cc1cn(Cc2ccccc2)c(=O)[nH]c1=O,3.61%
22,C=CCOc1ccc(C(Nc2cccc(C)n2)c2ccc3ccc(C)nc3c2O)cc1 (stereo not shown),-2.65%
23,O=C(Nc1ccc(Cl)cc1)Nc1cccc2c1C(=O)c1ccccc1C2=O,2.51%
24,CN1CCCC(C(=O)c2ccccc2)C1 (stereo not shown),-2.42%
25,CC12c3ccccc3C(c3ccccc31)C1C(=O)N(c3ccc(Cl)cc3)C(=O)C12 (stereo not shown),-1.59%
